From PubChem BioAssay (NCATS)
Where “and” joins values, the source holds several entries; their conditions need not be identical. Equal entries are not always repeated. This list was built around the results that the source calls inconclusive (neither active nor inactive); the mix of calls is not that of the screen. A potency beside an inconclusive call is a rough fit, not a confirmed value. Calls of active or inactive are those of the source. Calls follow the shape of the dose curve; as a rule, active = well fitted curve in the direction sought with a large enough effect; inconclusive = small, poorly fitted or top-dose-only effect, or another doubt; inactive = no such curve, though single readings can be large; an effect the other way counts as inactive or inconclusive.

How the values were obtained:
[1] = Primary qHTS for inhibitors of nuclear receptor binding SET domain protein 2 (NSD2) in an isogenic RCH-ACV NSD2 p.E1099K mutant (9B) (AID 1645876)
[2] = Primary qHTS for inhibitors of nuclear receptor binding SET domain protein 2 (NSD2) in an RCH-ACV wild type WT cells (2C) (AID 1645877)
Also: nearly all actives have a fitted effect of over 70% in size.
Potency is read from the fitted curve at half-maximal effect; tags tell the direction and shape of the fitted curve.

Row | Structure (SMILES) | Potency [1] | Potency [2]
1 | CC(C)OC(=O)c1cc(C(=O)OC(C)C)cc([N+](=O)[O-])c1 | inactive | inactive
2 | O=c1c(O)c(-c2ccc(O)c(O)c2)oc2cc(O)ccc12 | inconclusive: 29.1 µM [inhibitor, single point] and inconclusive: 20.9 µM [inhibitor, partial curve] | inconclusive: 20.6 µM [inhibitor, single point] and inconclusive: 23.5 µM [inhibitor, single point]
3 | CN(C)c1ccc(N=NS(=O)(=O)O)cc1 | inconclusive: 36.2 µM [inhibitor, single point] | inconclusive: 40.7 µM [inhibitor, single point]
4 | Nc1c(CC(=O)O)cccc1C(=O)c1ccc(Br)cc1 | inconclusive: 29.9 µM [inhibitor, single point] | inconclusive: 29.9 µM [inhibitor, partial curve, poor fit]
5 | COc1ccc2nc(NC(=O)Nc3ccccc3)sc2c1 | inconclusive: 18.8 µM [inhibitor, partial curve] | inconclusive: 26.6 µM [inhibitor, single point]
6 | O=C1NC(=O)/C(=C/c2ccc3nccnc3c2)S1 | inactive | inconclusive: 18.6 µM [inhibitor, partial curve, poor fit]
7 | O=C(OCc1ccccc1)c1ccc(O)cc1 | inconclusive: 29.9 µM [inhibitor, single point] | inconclusive: 16.8 µM [inhibitor, single point]
